In PubChem BioAssay AID1476 (National Center for Advancing Translational Sciences (NCATS), 2009):
The whole screen tested about 200,000 compounds, of which about 4,500 (2.2%) were called active. This list was built around the results that the source calls inconclusive (neither active nor inactive); the mix of calls is not that of the screen. The call rests on the fitted dose curve; in most records, active means well fitted inhibition curve with a large enough effect; inconclusive means small, poorly fitted or top-dose-only effect, or effect the other way; inactive means flat fitted curve, though single readings scatter. A potency beside an inconclusive call is a rough fit, not a confirmed value.

Target: Cruzipain (Trypanosoma cruzi) (UniProt P25779)
Experiment: qHTS Assay for Promiscuous and Specific Inhibitors of Cruzain (without detergent); further: nearly all actives have a fitted effect of over 40% in size;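 on max response, negative = inhibition: plate controls were enzyme without inhibitor for no effect and buffer without enzyme for full effect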
Conditions: purified cruzain, Z-FR-AMC fluorescence, no detergent
Outline: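 Purified cruzain at 1.5 nM, pre-incubated 15 min with compound at room temperature in 100 mM sodium acetate pH 5.5, 5 mM DTT, 0.00005% Triton X-100. Reaction started with 2 uM Z-FR-AMC; AMC fluorescence increase over 60 s gives rate.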
Potency means the concentration at half of the fitted maximal effect; tags describe the fitted curve by direction and shape.

Sequence of UniProt P25779 (P25779 whole entry, looked up): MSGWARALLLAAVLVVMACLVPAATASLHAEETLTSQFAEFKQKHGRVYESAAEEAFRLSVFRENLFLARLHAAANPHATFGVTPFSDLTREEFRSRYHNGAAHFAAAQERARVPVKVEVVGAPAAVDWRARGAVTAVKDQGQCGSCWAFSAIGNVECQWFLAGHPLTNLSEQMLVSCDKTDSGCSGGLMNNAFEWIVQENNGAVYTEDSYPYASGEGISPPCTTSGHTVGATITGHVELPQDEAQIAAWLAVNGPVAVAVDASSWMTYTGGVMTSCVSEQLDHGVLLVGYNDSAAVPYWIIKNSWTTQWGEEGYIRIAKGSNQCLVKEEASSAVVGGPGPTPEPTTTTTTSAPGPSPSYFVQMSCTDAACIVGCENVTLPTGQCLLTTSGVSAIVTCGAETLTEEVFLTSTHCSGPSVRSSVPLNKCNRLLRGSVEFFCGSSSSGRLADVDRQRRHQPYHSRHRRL

| Structure (SMILES) | Potency | max response, negative = inhibition |
| --- | --- | --- |
| COc1cc(C(=O)Nc2nc(-c3cc(C)ccc3C)c(C)s2)ccc1OCC(=O)Nc1ccc(F)cc1 | active: 20 µM | – |
| O=C(CCN1C(=O)c2ccccc2C1=O)Nc1sc2c(c1C(=O)NCc1ccco1)CCCC2 | inconclusive: 39.8 µM [inhibitor, single point] | – |
| Cc1cc(C)n(-c2nc(NCCO)c3c4c(sc3n2)CCCC4)n1 | – | inconclusive: 82.3% [activator] |
| CCN=C1SC(CC(=O)Nc2sc3c(c2C#N)CCCC3)C(=O)N1CC (stereo unspecified) | inconclusive: 10 µM [activator, partial curve] | – |
| O=C1/C(=C\c2ccc3ccccc3c2)CCCc2ccccc21 | inconclusive: 31.6 µM [inhibitor, single point] | – |
| Nc1ccc(Sc2cc(Cl)nc(N)n2)cc1 | active: 12.6 µM | – |
| Cc1ccccc1OCc1nnc(SCC(=O)Nc2ccc3nc(SCC(=O)Nc4ccccc4)sc3c2)n1C | active: 25.1 µM | – |
| CC(C)c1cccc2nc3c(c([Si](C)(C)C)c12)Cn1c-3cccc1=O | inconclusive: 25.1 µM [activator, single point] | – |
| CCc1ccccc1NS(=O)(=O)c1ccc2[nH]cc(C(=O)NCc3ccco3)c(=O)c2c1 | inconclusive: 25.1 µM [activator, partial curve] | – |
| Cc1ccc(N(C(=O)c2ccc(CN3CCOCC3)o2)C(C(=O)NCCC(C)C)c2cccs2)c(C)c1 (stereo unspecified) | inconclusive: 20 µM [activator, single point] | – |
| CC(C)c1ccc(C(=O)Nc2cccc3cccnc23)cc1 | – | inactive: -12.7% |
| CCOC(=O)c1ccc(N2C(=O)c3n[nH]c(C)c3C2c2ccc(OC)cc2)cc1 (stereo unspecified) | inconclusive: 39.8 µM [activator, single point] | – |
| CC(c1ccccc1)N1CCn2c(nc3cc(NC(=O)c4cccs4)ccc32)C1 (stereo unspecified) | active: 31.6 µM | – |
| CCc1ccc(NC(=O)Cn2nnc(C(=O)NCc3ccco3)c2N)cc1 | inconclusive: 25.1 µM [inhibitor, single point] | – |
| Cc1ccc2c(Cl)c(C(=O)Nc3ccc4c(c3)OCO4)sc2c1 | active: 20 µM | – |
| COC(=O)[C@@]1(Cc2ccccc2)[C@H]2c3cc(C(=O)N(C)C)n(Cc4ccccc4)c3C[C@H]2CN1C(=O)c1ccccc1 | inconclusive: 10 µM [activator, partial curve] | – |
| Cc1cccc(C(=O)OCC(=O)Nc2sc3c(c2C#N)CCC3)c1 | active: 25.1 µM | – |
| COc1cc(OC)c(NS(=O)(=O)c2cc(C(=O)OC(C)C(=O)NC3CC3)c(Cl)cc2Cl)cc1Cl (stereo unspecified) | inconclusive: 39.8 µM [activator, single point] | – |
| CCOc1ccccc1N1CC(c2nc3ccccc3n2CCCOc2ccccc2OC)CC1=O (stereo unspecified) | inconclusive: 31.6 µM [activator, single point] | – |
| Fc1ccccc1COc1ccccc1/C=N/Nc1nc(N2CCCC2)nc(N2CCCC2)n1 | inconclusive: 15.8 µM [inhibitor, single point] | – |
| O=C(Cc1cccs1)Nc1nnc(SCc2ccc(F)cc2)s1 | inconclusive: 39.8 µM [inhibitor, single point] | – |

| Structure (SMILES) | Potency | max response, negative = inhibition |
| --- | --- | --- |
| CCc1ccccc1N1CC(c2nc3ccccc3n2Cc2cccc(C)c2)CC1=O (stereo unspecified) | inconclusive: 39.8 µM [activator, single point] | – |
| COC(=O)c1ccc(C(NC(=O)OCc2ccccc2)/C(=C/[C@@H](C)C(=O)NCC2CC2)c2cccnc2)cc1 (stereo partly specified) | inconclusive: 31.6 µM [activator, single point] | – |
| O=c1c2[nH]c3ccc(F)cc3c2ncn1C1CCCCC1 | inconclusive: 39.8 µM [inhibitor, single point] | – |
| N#Cc1ccccc1S(=O)(=O)N1CCN(c2ccc(S(=O)(=O)N3CCOCC3)cn2)CC1 | inconclusive: 39.8 µM [activator, single point] | – |
| COc1cc(-c2noc(-c3ccc(NCCc4ccccc4)c([N+](=O)[O-])c3)n2)cc(OC)c1OC | – | inactive: -8.84% |
| Cn1c(=O)[nH]c(=O)c2c1nc(N1CCN(c3cccc(Cl)c3)CC1)n2CCCc1ccccc1 | active: 12.6 µM | – |
| COC(=O)/C=C1\S/C(=N/N=C/c2ccccc2)NC1=O | – | inactive: 1.34% |
| O=C1C2CCCN2C(c2ccccc2)N1c1ccc(F)cc1 (stereo unspecified) | – | inactive: -12% |
| CC(C)(C)c1cc(NC(=O)c2cc(F)c(F)c(F)c2F)no1 | inconclusive: 31.6 µM [inhibitor, single point] | – |
| O=C(CN1CCOCC1)Nc1c(-c2ccccc2)c2cc(Br)ccc2[nH]c1=O | inconclusive: 25.1 µM [activator, single point] | – |
| COCCNC(=O)CCCn1c(SCC(=O)Nc2cccc(C)c2)nc2c(sc3ccccc32)c1=O | – | inactive: 12.4% |
| COc1ccc(N2CCN(c3nc4c(c(=O)n(C)c(=O)n4C)n3Cc3ccccc3)CC2)cc1 | inconclusive: 39.8 µM [activator, single point] | – |
| COc1ccc(N2CCN(C(c3ccccc3)c3nnc(-c4ccccc4Cl)o3)CC2)cc1 (stereo unspecified) | – | inactive: -11.3% |
| O=C(CCN1CCc2ccccc2CC1)c1ccc2c(c1)OCCO2 | active: 15.8 µM | – |
| Brc1csc(/C=N/Nc2nc3ccccc3s2)c1 | inconclusive: 31.6 µM [inhibitor, single point] | – |
| COc1ccccc1CNc1ncnc2ccc(-c3cccc(C#N)c3)cc12 | – | inactive: 12% |
| COc1ccc(N2C(=O)CC(N3CCN(c4ccc(S(=O)(=O)N5CCCC5)cc4)CC3)C2=O)cc1 (stereo unspecified) | inconclusive: 31.6 µM [activator, single point] | – |
| CCOC(=O)COc1cc(OCC(=O)OCC)c2c(=O)cc(-c3ccccc3)oc2c1 | inconclusive: 39.8 µM [activator, single point] | – |
| CCC(=O)Oc1ccc(C2N(C(=O)CC)CCN2S(=O)(=O)c2ccc(C)cc2)cc1OC (stereo unspecified) | inconclusive: 31.6 µM [activator, single point] | – |
| COc1cc(OC)cc(C(=O)Nc2ccc3nc(N4CCC(C)CC4)cc(C)c3c2)c1 | inconclusive: 39.8 µM [inhibitor, single point] | – |
